Experimental data: the supplement of paper PMC10126150
Values marked as one replicate rest on one cluster of the flow cell; about a third of the high ones do not repeat.

Tested on: ATP
Experiment: switch fluorescence ratio, 500 uM ATP over buffer (Cy3 cluster intensity, sum of 5 cycles each) (fold (ratio)); higher = stronger signal-on switching upon ATP binding; sequences stand for … in TCGTCGGCAGCGTCAGATGTGTATAAGAGACAGTTTTTTTTTTTTTTTTTTTTTTTTT…TC
Details: aptamer strand: ATP DNA aptamer (quencher-CACCTGGGGGAGTATTGCGGAGGAAGG + anchor), 100 nM annealed; ATP concentration: 500 uM; one replicate
Method in brief: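 For every switch-domain sequence, the fluorescence ratio is the mean of per-cluster values, each being summed target-cycle Cy3 intensity over summed buffer-cycle Cy3 intensity. Clusters outside 100-1000 RFU were excluded. On a modified Illumina MiSeq flow-cell, the Cy3-labelled switching-strand clusters were annealed to 100 nM quencher-labelled ATP aptamer, imaged in selection buffer and then after 15 min with 500 uM ATP at 22 °C. Five such cycles were run, with NaOH stripping and re-annealing between them.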
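Further: ATP exposure 15 min at 22 °C before imaging.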

Row | Sequence | switch fluorescence ratio
1 | CGCTTTAGCT | 0.983
2 | TTTAGCACGT | 0.979
3 | ATGTTCTGGT | 0.942
4 | CCATGTTAGA | 0.939
5 | AGACAGGGTA | 1.03
6 | TTTCGCGAGA | 1.16
7 | TATCAGCCTG | 1.03
8 | ACGATAACAA | 1.22
9 | GAACAGGATG | 1.02
10 | TACTGGCAAC | 1.16
11 | TCAACTTACA | 1.21
12 | CCGCAGATCA | 2.44
13 | GAACGAGATC | 0.983
14 | ACTACTTCCC | 1.23
15 | TAAAGTCGAC | 0.955
16 | CGTTTGAGCA | 0.98
17 | ATGATAAGC | 1.13
18 | TTCAGTTTAC | 1.01
19 | CTTAAGTTTT | 0.987
20 | AGTACAGTTT | 1.06
21 | TTTGCCATGT | 0.986
22 | TTACAGTCTA | 1.01
23 | GGTTTTCCCG | 1
24 | ATGCTATGGA | 0.979
25 | GGGTGAGC | 0.933

Row | Sequence | switch fluorescence ratio
26 | GCAGCAGGCT | 0.998
27 | TCTTTGGCCC | 0.984
28 | ATGAACGCCG | 1.06
29 | TCCATATATT | 0.992
30 | TCAGTCTAGC | 1.01
31 | CTAGTTTGCT | 0.917
32 | AGATGCGGCT | 0.993
33 | CTTTGAAGCT | 1.01
34 | AAACGCTGTG | 1.04
35 | TTGAAAGCAT | 1.02
36 | TTGCTACCGC | 1
37 | CTGTGGGAG | 1
38 | TCAGTCGGGT | 0.994
39 | TATGCCAAAG | 0.998
40 | GTCCCCGATC | 1.06
41 | AGCTCGGGTG | 1.12
42 | TTTCATAAGA | 1
43 | ACCTACTTCT | 1.22
44 | ACATCGTTGG | 0.996
45 | AAGTTCGCCG | 0.98
46 | GTGATGAACT | 1.02
47 | GCCACGTACG | 1.66
48 | CCTCGACCAT | 1.45
49 | GACGCCCAAT | 3.14
50 | ATGGTTTTTA | 0.965

Row | Sequence | switch fluorescence ratio
51 | AGTTAAGTCG | 1.04
52 | CGTGATGTAG | 1.01
53 | TACGGAAATT | 0.993
54 | CATTCATTT | 0.992
55 | AGATTGGCGT | 1.01
56 | CATTGGGTAA | 0.986
57 | TCTTCCTCG | 2.32
58 | CTATGTGTTC | 1.03
59 | GATAGATTGC | 0.954
60 | ACTAGTCTAG | 0.98
61 | TTAGTACTAG | 0.965
62 | TGTTTAGCAG | 1.14
63 | GCTATAGCC | 1
64 | AATTGGCCAG | 0.967
65 | ACATACGTTC | 1.33
66 | GTTGGAACGG | 0.978
67 | CAGAAGCCGG | 0.968
68 | GTTTTTTTAC | 1.07
69 | GACAGGATCC | 1
70 | CTCGTTTGCC | 0.987
71 | CGGAGTCAGC | 1.59
72 | ACCAGTTGG | 0.995
73 | CCCATACTTC | 1.4
74 | GATGCGACTT | 1.01
75 | GCGCGAAATA | 0.99

Row | Sequence | switch fluorescence ratio
76 | TACGACGACA | 1.76
77 | CTTGGAACTA | 0.973
78 | TTGAGTCACC | 1.01
79 | TCGCCCTCGC | 1.12
80 | GCTATCTCTG | 0.977
81 | ATGCTTGACT | 0.984
82 | CGGCTGAAGT | 0.996
83 | CCGGCGTAGG | 1.08
84 | TTTTAGACTT | 0.992
85 | GTCGTGGAGG | 1.03
86 | TGATACGTAG | 1.02
87 | ATGAGGTCCG | 1.03
88 | TTCTGTTACG | 1.04
89 | GAAAGTAGAT | 1.03
90 | GACATAATTC | 1.06
91 | AAGATGTCCA | 1.02
92 | GACTCTTCCT | 1.75
93 | GCTGATGTTG | 0.962
94 | GGGATACTAC | 1.13
95 | AGCTGGCCCG | 0.958
96 | GCTACGCGCG | 1.05
97 | GGACCGATAA | 1.03
98 | GGGAGGGCCA | 1.06
99 | TACGCTGGTC | 1.1
100 | ACGCCTTCGG | 1.03

Row | Sequence | switch fluorescence ratio
101 | AACGTAGTCA | 0.995
102 | CTTGCTCGCA | 1.67
103 | AGTAGGTTCC | 0.991
104 | CAATAGCCAC | 1.19
105 | GGGGAAGTCG | 1.09
106 | CACTTACGAT | 1.34
107 | AGTTTCCATT | 1
108 | TGAATAGGAC | 1.05
109 | TTGATTAC | 1.08
110 | TTACAGAAGT | 1.03
111 | ATTTCGGTTA | 1.02
112 | ATGGACGATG | 1.01
113 | CATTGTGGCT | 0.993
114 | TTTAAACTAA | 1.03
115 | GTAGTAGGG | 0.973
116 | CGCGGCGAGC | 1.01
117 | GTTAGACTAG | 0.942
118 | ACGAGGTGGT | 1.02
119 | AGTCGGGTAT | 0.999
120 | TAACCTTGGG | 1.03
121 | TGTATCACCG | 0.969
122 | CTTGACGAAC | 1.37
123 | GTGTGCTAGC | 0.96
124 | TATTGACCTT | 1.03
125 | GCGGCTTGTC | 1.01

Row | Sequence | switch fluorescence ratio
126 | GATAGCGGGT | 1.01
127 | ACAGCATGCT | 0.992
128 | AAGGGAGGAG | 0.982
129 | TTGAACCACT | 1.05
130 | ACGACGTATC | 1.16
131 | TAGTATCGAT | 1.01
132 | TTTACAGTAT | 1.13
133 | GAACGCCCGT | 1.13
134 | ATTTGTTTGC | 1.04
135 | TGAGCAAGGG | 1.05
136 | GTCCAGATAA | 1.04
137 | CGTTATAGGA | 0.989
138 | TTTCGCACAG | 1.06
139 | TGGTCGTTCC | 1.1
140 | CGCAACGGTT | 1.16
141 | TAAAGCTCG | 1.04
142 | CGCGGTGTAT | 1.01
143 | AGGCTTGTGG | 1.01
144 | GAAAGTTTTT | 0.966
145 | CATCGCAGAA | 1.33
146 | TGTGGATTAG | 0.936
147 | GGTAGCAAGC | 3.45
148 | AAAAGAAGAT | 0.965
149 | CGCTGGGTCG | 1.03
150 | CAGCTGAGGG | 1.04

Row | Sequence | switch fluorescence ratio
151 | CAACTGGTTA | 0.994
152 | GCTGAAGTTG | 0.991
153 | AGGGTCATTA | 1.04
154 | AGAACCTGCT | 0.998
155 | TCAACAAGG | 1.43
156 | TTGGAAGTCA | 1.01
157 | CGGTAGTTCT | 0.978
158 | GTCTGCGGCG | 1.03
159 | TTCCCGGTGA | 1.41
160 | AGGCTTAGGC | 0.978
161 | GGTTTCTAAA | 0.975
162 | GTTTCAGTGC | 1
163 | CTGTAATGAA | 0.978
164 | GATGCCCTGC | 1.04
165 | CTCTGTAAGT | 1.12
166 | GGTGGACCAC | 0.976
167 | GGCACGAAGT | 0.98
168 | AAATGGGCGC | 1.02
169 | ATGGGTGCCC | 1.01
170 | CGCGTTGCGT | 0.973
171 | TTGATGGTCT | 1.1
172 | GGTAGTACAA | 1.04
173 | CTCAGATGTT | 0.98
174 | ATACTTTGAC | 1.04
175 | TGGTTACTTA | 1.01

Row | Sequence | switch fluorescence ratio
176 | TATATCTCGC | 1.03
177 | GAATAACCGT | 0.988
178 | GTTATCCCTA | 1.01
179 | GATCTCTCGA | 1.01
180 | CATTGGAGAT | 1
181 | GGCTTTGCCA | 1.02
182 | TCTGACCCAT | 1.06
183 | TTAGGAAAAC | 1
184 | TAGCCGTTGA | 1.08
185 | GTGCGGAATG | 1.01
186 | AAACCAGTGG | 1.03
187 | CCTGGCCAAG | 1.06
188 | TAAACGGCGG | 1.01
189 | TGAGGCCAGG | 1.23
190 | ACGCTTTTGT | 1
191 | TCAGGGCTAT | 1.14
192 | TGCTTGGCG | 1.01
193 | AGCGTGAAGG | 0.997
194 | AATTGCTAGG | 1.01
195 | AGACCCGTA | 1.04
196 | GGTTTGT | 1.03
197 | CGACTCGGTA | 1.07
198 | ATTCGTGTGG | 1.05
199 | GGGAAAACTT | 1.03
200 | TTCGTGACCG | 0.989
